Measured values reported in the supplement of paper PMC12067230.
The data scatter; read single values as rough.

assay: amyloid nucleation score relative to library mode (yeast Sup35 reporter selection) (log enrichment difference); higher = more amyloid nucleation; sequences are the first 22 residues of the Bri2 peptide extended by up to 12 random residues; details: random library (experiment): 1;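 active = nucleation score significantly above 0 at FDR 0.05; inactive = not significantly above 0 or absent from output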
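Note: [psi-pin-] Saccharomyces cerevisiae expressing SupN fusions, induced by 100 µM Cu2SO4, selected 7 d at 30 °C without adenine and uracil, scored by deep sequencing of output versus input.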

| Sequence | amyloid nucleation score |
| --- | --- |
| EASNCFAIRHFENKFAVETLICWKGQVKSRSRGK | inactive |
| EASNCFAIRHFENKFAVETLICTSAVTFNNNGVR | 8.1 |
| EASNCFAIRHFENKFAVETLICLVICSWT | inactive |
| EASNCFAIRHFENKFAVETLICCARSIRGRCTEY | 4.23 |
| EASNCFAIRHFENKFAVETLICGRMDIPTTVRSG | inactive |
| EASNCFAIRHFENKFAVETLICNDSRTMRQRGAE | inactive |
| EASNCFAIRHFENKFAVETLICYRKGRVLCVCVR | inactive |
| EASNCFAIRHFENKFAVETLICAMHFIDYKYLGC | inactive |
| EASNCFAIRHFENKFAVETLICLLCVHNWTWFIA | inactive |
| EASNCFAIRHFENKFAVETLICVCVTSESMAPES | 7.8 |
| EASNCFAIRHFENKFAVETLICLEDPGGPGQVNG | inactive |
| EASNCFAIRHFENKFAVETLICHSMTMSVVKCKK | 6.66 |
| EASNCFAIRHFENKFAVETLICHVRINIATCWCA | inactive |
| EASNCFAIRHFENKFAVETLICDLIVMLFKCDIR | inactive |
| EASNCFAIRHFENKFAVETLICVVTWRGGPVASW | inactive |
| EASNCFAIRHFENKFAVETLICCVVSIFPWSVFG | 6.13 |
| EASNCFAIRHFENKFAVETLICMQDGWYFPFFLR | inactive |
| EASNCFAIRHFENKFAVETLICLLVCSGREHTGV | inactive |
| EASNCFAIRHFENKFAVETLICTADV | inactive |
| EASNCFAIRHFENKFAVETLICGYVMPNYWGDDG | 4.8 |
| EASNCFAIRHFENKFAVETLICHKSFGDRERKRR | inactive |
| EASNCFAIRHFENKFAVETLICVVRQGRRESGT | inactive |

| Sequence | amyloid nucleation score |
| --- | --- |
| EASNCFAIRHFENKFAVETLICPLMTCSVMDSRR | 4.52 |
| EASNCFAIRHFENKFAVETLICGDGHVNSGADST | inactive |
| EASNCFAIRHFENKFAVETLICKEVSSAAQDVGA | inactive |
| EASNCFAIRHFENKFAVETLICPDAVRGGRCRVS | 0.165 |
| EASNCFAIRHFENKFAVETLICRMWPSSDVDGET | 3.76 |
| EASNCFAIRHFENKFAVETLICMSGNHAGTVC | inactive |
| EASNCFAIRHFENKFAVETLICRDR | inactive |
| EASNCFAIRHFENKFAVETLICVRRAETSVDDGC | -0.137 |
| EASNCFAIRHFENKFAVETLICNRVLVYLRPCWA | inactive |
| EASNCFAIRHFENKFAVETLICRARGKFGGAPRG | inactive |
| EASNCFAIRHFENKFAVETLICHWPALWDLNYAG | 0.506 |
| EASNCFAIRHFENKFAVETLICLYARQKWPWLPK | inactive |
| EASNCFAIRHFENKFAVETLICWPTSPVRAGTNG | inactive |
| EASNCFAIRHFENKFAVETLICAGKLRTTVRVLS | inactive |
| EASNCFAIRHFENKFAVETLICCSVSYTHWWVCE | 6.06 |
| EASNCFAIRHFENKFAVETLICNRLLSWTSTSAL | inactive |
| EASNCFAIRHFENKFAVETLICVLSLVLEDTLGC | inactive |
| EASNCFAIRHFENKFAVETLICNTWDSV | inactive |
| EASNCFAIRHFENKFAVETLICATKVETGWCSVL | 0.627 |
| EASNCFAIRHFENKFAVETLICVLVWFVNRYRAL | inactive |
| EASNCFAIRHFENKFAVETLICQAHGQGERLQPY | inactive |

same assay, conditions: random library (experiment): 2

| Sequence | amyloid nucleation score |
| --- | --- |
| EASNCFAIRHFENKFAVETLICYLSCSWGFVPRK | inactive |
| EASNCFAIRHFENKFAVETLICLLRI | inactive |
| EASNCFAIRHFENKFAVETLICYKVFSDSLANCW | inactive |
| EASNCFAIRHFENKFAVETLICRDSGSLIFVMYR | inactive |
| EASNCFAIRHFENKFAVETLICLPYMQFFVCNND | 8.41 |
| EASNCFAIRHFENKFAVETLICLWGGNILRIAMS | inactive |
| EASNCFAIRHFENKFAVETLICILLRIS | inactive |
| EASNCFAIRHFENKFAVETLICKCIPCLLTVSSG | inactive |
| EASNCFAIRHFENKFAVETLICVCSVCFNSLKDN | 8.1 |
| EASNCFAIRHFENKFAVETLICRACTLLGGGRTA | 3.79 |
| EASNCFAIRHFENKFAVETLICCVSPCIVSRGVV | 6.31 |
| EASNCFAIRHFENKFAVETLICHGRANTFMQHCT | inactive |
| EASNCFAIRHFENKFAVETLICISLLYYSDFDVW | inactive |
| EASNCFAIRHFENKFAVETLICKTMGSGFLLERT | inactive |
| EASNCFAIRHFENKFAVETLICFSRCDGAYLI | inactive |
| EASNCFAIRHFENKFAVETLICDSSVGRALRFGM | inactive |
| EASNCFAIRHFENKFAVETLICFNSQCQEYEYYG | 8.22 |
| EASNCFAIRHFENKFAVETLICVDRIYFNFFPLP | 6.59 |
| EASNCFAIRHFENKFAVETLICYLVLMSMASSME | -0.482 |

| Sequence | amyloid nucleation score |
| --- | --- |
| EASNCFAIRHFENKFAVETLICRNPWPRSREAAM | -0.0392 |
| EASNCFAIRHFENKFAVETLICPESRERVVTGLG | inactive |
| EASNCFAIRHFENKFAVETLICNVYFD | 8.04 |
| EASNCFAIRHFENKFAVETLICLRTYAQRIGA | 0.85 |
| EASNCFAIRHFENKFAVETLICVKDKYDSVMLPW | 1.8 |
| EASNCFAIRHFENKFAVETLICWIYRVSIPRSAC | inactive |
| EASNCFAIRHFENKFAVETLICVCIVCSPTSLL | 0.813 |
| EASNCFAIRHFENKFAVETLICCWRRYLGKSV | inactive |
| EASNCFAIRHFENKFAVETLICRHADFFC | 7.85 |
| EASNCFAIRHFENKFAVETLICFVWAYDF | 3.96 |
| EASNCFAIRHFENKFAVETLICPSLSEGQWTACV | inactive |
| EASNCFAIRHFENKFAVETLICYTLVYNEQDRTV | 5.6 |
| EASNCFAIRHFENKFAVETLICFMSNTIARSPAE | 6.21 |
| EASNCFAIRHFENKFAVETLICRFE | inactive |
| EASNCFAIRHFENKFAVETLICYSYFQLYLSVPA | inactive |
| EASNCFAIRHFENKFAVETLICKYVLVTLEDFWA | inactive |
| EASNCFAIRHFENKFAVETLICMWTSGNQYVGSE | inactive |
| EASNCFAIRHFENKFAVETLICRGGVYWTIKRRG | inactive |
| EASNCFAIRHFENKFAVETLICLETRF | 1.2 |

same assay, conditions: random library (experiment): 3

| Sequence | amyloid nucleation score |
| --- | --- |
| EASNCFAIRHFENKFAVETLICMGGRRLGVEGTR | inactive |
| EASNCFAIRHFENKFAVETLICHKLPLD | inactive |
| EASNCFAIRHFENKFAVETLICKIRN | 1.71 |
| EASNCFAIRHFENKFAVETLICHIMFVGLYVSEH | inactive |
| EASNCFAIRHFENKFAVETLICLYMWYA | inactive |
| EASNCFAIRHFENKFAVETLICGLSRSRRLRMAW | inactive |
| EASNCFAIRHFENKFAVETLICQRIVYMAGECMR | 4.6 |
| EASNCFAIRHFENKFAVETLICVFSLVFKTIGKS | inactive |
| EASNCFAIRHFENKFAVETLICCTVYGHVRGLRM | 5.49 |
| EASNCFAIRHFENKFAVETLICQLMDVRSERWTD | inactive |
| EASNCFAIRHFENKFAVETLICCWA | 6.58 |
| EASNCFAIRHFENKFAVETLICLVLSGNI | 5.64 |
| EASNCFAIRHFENKFAVETLICPPC | inactive |
| EASNCFAIRHFENKFAVETLICVFNMFHLVRFSS | inactive |
| EASNCFAIRHFENKFAVETLICGCMPKLQDIIT | 4.02 |
| EASNCFAIRHFENKFAVETLICIYWSNLCCSYGV | 5.14 |
| EASNCFAIRHFENKFAVETLICQAVANESTSSHG | inactive |
| EASNCFAIRHFENKFAVETLICKHTRWMSCCDTS | inactive |
| EASNCFAIRHFENKFAVETLICKHGMRTRHYVLR | inactive |

| Sequence | amyloid nucleation score |
| --- | --- |
| EASNCFAIRHFENKFAVETLICRYKGRSTELLML | inactive |
| EASNCFAIRHFENKFAVETLICKW | 1.91 |
| EASNCFAIRHFENKFAVETLICLSFKATKWKSRR | 0.527 |
| EASNCFAIRHFENKFAVETLICVFDK | inactive |
| EASNCFAIRHFENKFAVETLICQMCINYRRNLRH | inactive |
| EASNCFAIRHFENKFAVETLICNVVDYAYMEFRG | 5 |
| EASNCFAIRHFENKFAVETLICFYVMPKGGGEHV | 5.58 |
| EASNCFAIRHFENKFAVETLICAFEHSNWCEREG | 1.18 |
| EASNCFAIRHFENKFAVETLICYVNAAWFYGKRG | 4.91 |
| EASNCFAIRHFENKFAVETLICLTVNWIAFNSIC | 1.48 |
| EASNCFAIRHFENKFAVETLICARDTARRLRISR | inactive |
| EASNCFAIRHFENKFAVETLICQIGFT | 5.35 |
| EASNCFAIRHFENKFAVETLICQCAWSGRVPWAL | 4.59 |
| EASNCFAIRHFENKFAVETLICMFYLIGNSTFNS | inactive |
| EASNCFAIRHFENKFAVETLICMMVVALRRCSWW | 0.44 |
| EASNCFAIRHFENKFAVETLICTSSARCMSWLVR | inactive |
| EASNCFAIRHFENKFAVETLICDGIMVDTMMNGV | inactive |
| EASNCFAIRHFENKFAVETLICDYMCFVR | inactive |
| EASNCFAIRHFENKFAVETLICHYSYTVSSLPRS | -0.0863 |
